# Laboratory results taken from the supplement of paper PMC8728848.
# This is one part of the list.
# What was measured:
# Assay in all cases: glycan array binding signal (z-score within array); higher = stronger binding
# Details in all cases: glycan notation: IUPAC condensed, linker removed
# [1] = biological target: Neu5Ac(a2-3)Gal(b1-3)[Neu5Ac(a2-6)]GalNAc
# In short: (§1)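 Glycan array data were curated from 3228 arrays in the Consortium for Functional Glycomics database and kept only where the protein sequence was available. Glycan names were converted to IUPAC-condensed notation, and columns mapping to the same glycan were averaged. The binding signal is a within-array Z-score, averaged across arrays of the same protein sequence at different concentrations or buffers and across linkers. Negative Z-scores can be read as non-binding.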
# [2] = biological target: Neu5Ac(a2-3)Gal(b1-4)Glc
# In short: as §1
# [3] = biological target: Neu5Ac(a2-3)Gal(b1-4)GlcNAc
# In short: as §1
# [4] = biological target: Neu5Ac(a2-3)Gal(b1-4)GlcNAc(b1-2)Man(a1-3)[Neu5Ac(a2-3)Gal(b1-4)GlcNAc(b1-2)Man(a1-6)]Man(b1-4)GlcNAc(b1-4)GlcNAc
# In short: as §1
# [5] = biological target: Neu5Ac(a2-3)Gal(b1-4)GlcNAc(b1-3)Gal(b1-4)GlcNAc
# In short: as §1
# [6] = biological target: Neu5Ac(a2-3)Gal(b1-4)GlcNAc(b1-3)Gal(b1-4)GlcNAc(b1-3)Gal(b1-4)GlcNAc
# In short: as §1
# [7] = biological target: Neu5Ac(a2-3)Gal(b1-4)GlcNAc(b1-3)Gal(b1-4)[Fuc(a1-3)]GlcNAc
# In short: as §1
# [8] = biological target: Neu5Ac(a2-3)Gal(b1-4)GlcNAc6S
# In short: as §1
# [9] = biological target: Neu5Ac(a2-3)Gal(b1-4)[Fuc(a1-3)]GlcNAc
# In short: as §1
# [10] = biological target: Neu5Ac(a2-3)Gal(b1-4)[Fuc(a1-3)]GlcNAc(b1-3)Gal
# In short: as §1
# [11] = biological target: Neu5Ac(a2-3)Gal(b1-4)[Fuc(a1-3)]GlcNAc(b1-3)Gal(b1-4)GlcNAc
# In short: as §1
# [12] = biological target: Neu5Ac(a2-3)Gal(b1-4)[Fuc(a1-3)]GlcNAc(b1-3)Gal(b1-4)[Fuc(a1-3)]GlcNAc(b1-3)Gal(b1-4)[Fuc(a1-3)]GlcNAc
# In short: as §1
# [13] = biological target: Neu5Ac(a2-3)Gal(b1-4)[Fuc(a1-3)]GlcNAc6S
# In short: as §1
# [14] = biological target: Neu5Ac(a2-3)Gal6S(b1-4)GlcNAc
# In short: as §1
# [15] = biological target: Neu5Ac(a2-3)Gal6S(b1-4)[Fuc(a1-3)]GlcNAc
# In short: as §1
# [16] = biological target: Neu5Ac(a2-3)GalNAc
# In short: as §1
# [17] = biological target: Neu5Ac(a2-3)GalNAc(b1-4)GlcNAc
# In short: as §1
# [18] = biological target: Neu5Ac(a2-3)[GalNAc(b1-4)]Gal(b1-4)Glc
# In short: as §1
# [19] = biological target: Neu5Ac(a2-3)[GalNAc(b1-4)]Gal(b1-4)GlcNAc
# In short: as §1
# [20] = biological target: Neu5Ac(a2-3)[Neu5Ac(a2-6)]GalNAc
# In short: as §1
# [21] = biological target: Neu5Ac(a2-6)Gal
# In short: as §1
# [22] = biological target: Neu5Ac(a2-6)Gal(b1-4)Glc
# In short: as §1
# [23] = biological target: Neu5Ac(a2-6)Gal(b1-4)GlcNAc
# In short: as §1
# [24] = biological target: Neu5Ac(a2-6)Gal(b1-4)GlcNAc(b1-3)Gal(b1-4)GlcNAc
# In short: as §1
# [25] = biological target: Neu5Ac(a2-6)Gal(b1-4)GlcNAc(b1-3)Gal(b1-4)[Fuc(a1-3)]GlcNAc(b1-3)Gal(b1-4)[Fuc(a1-3)]GlcNAc
# In short: as §1
# [26] = biological target: Neu5Ac(a2-6)Gal(b1-4)GlcNAc6S
# In short: as §1
# [27] = biological target: Neu5Ac(a2-6)GalNAc
# In short: as §1
# [28] = biological target: Neu5Ac(a2-6)GalNAc(b1-4)GlcNAc
# In short: as §1
# [29] = biological target: Neu5Ac(a2-8)Neu5Ac
# In short: as §1
# [30] = biological target: Neu5Ac(a2-8)Neu5Ac(a2-3)Gal(b1-4)Glc
# In short: as §1
# [31] = biological target: Neu5Ac(a2-8)Neu5Ac(a2-3)[GalNAc(b1-4)]Gal(b1-4)Glc
# In short: as §1
# [32] = biological target: Neu5Ac(a2-8)Neu5Ac(a2-8)Neu5Ac
# In short: as §1
# [33] = biological target: Neu5Ac(a2-8)Neu5Ac(a2-8)Neu5Ac(a2-3)Gal(b1-4)Glc
# In short: as §1
# [34] = biological target: Neu5Ac(a2-8)Neu5Ac(a2-8)Neu5Ac(a2-3)[GalNAc(b1-4)]Gal(b1-4)Glc
# In short: as §1
# [35] = biological target: Neu5Ac(a2-8)Neu5Ac(a2-8)Neu5Ac(a2-8)Neu5Ac(a2-3)[GalNAc(b1-4)]Gal(b1-4)Glc
# In short: as §1
# [36] = biological target: Neu5Ac(b1-6)GalNAc
# In short: as §1
# [37] = biological target: Neu5Ac(b2-6)Gal(b1-4)GlcNAc
# In short: as §1
# [38] = biological target: Neu5Ac9Ac(a2-6)Gal(b1-4)GlcNAc
# In short: as §1
# [39] = biological target: Neu5Gc(a2-3)Gal(b1-3)GlcNAc
# In short: as §1
# [40] = biological target: Neu5Gc(a2-3)Gal(b1-3)[Fuc(a1-4)]GlcNAc
# In short: as §1
# [41] = biological target: Neu5Gc(a2-3)Gal(b1-4)Glc
# In short: as §1
# [42] = biological target: Neu5Gc(a2-3)Gal(b1-4)GlcNAc
# In short: as §1
# [43] = biological target: Neu5Gc(a2-3)Gal(b1-4)[Fuc(a1-3)]GlcNAc
# In short: as §1
# [44] = biological target: Neu5Gc(a2-6)Gal(b1-4)GlcNAc
# In short: as §1
# [45] = biological target: Neu5Gc(a2-6)GalNAc
# In short: as §1
binder,measurement,setting,value
"F17fG (Escherichia coli), Q9RH91 (protein) MTNFYKVFLAVFILVCCNISHAAVSFIGSTENDVGPSQGSYSSTHAMDNLPFVYNTGHNIGYQNANVWRISGGFCVGLDGKVDLPVVGSLDGQSIYGLTEEVGLLIWMGDTNYSRGTAMSGNSWENVFSGWCVGNYVSTQGLSVHVRPVILKRNSSAQYSVQKTSIGSIRMRPYNGSSAGSVQTTVNFSLNPFTLNDTVTSCRLLTPSAVNVSLAAISAGQLPSSGDEVVAGTTSLKLQCDAGVTVWATLTDATTPSNRSDILTLTGASTATGVGLRIYKNTDSTPLKFGPDSPVKGNENQWQLSTGTETSPSVRLYVKYVNTGEGINPGTVNGISTFTFSYQ",glycan array binding signal (z-score),[1],-0.193
same,glycan array binding signal (z-score),[2],-0.219
same,glycan array binding signal (z-score),[3],-0.292
same,glycan array binding signal (z-score),[4],-0.266
same,glycan array binding signal (z-score),[5],-0.346
same,glycan array binding signal (z-score),[6],-0.335
same,glycan array binding signal (z-score),[7],-0.068
same,glycan array binding signal (z-score),[8],-0.069
same,glycan array binding signal (z-score),[9],-0.286
same,glycan array binding signal (z-score),[10],-0.227
same,glycan array binding signal (z-score),[11],-0.23
same,glycan array binding signal (z-score),[12],-0.209
same,glycan array binding signal (z-score),[13],-0.2
same,glycan array binding signal (z-score),[14],0.007
same,glycan array binding signal (z-score),[15],-0.144
same,glycan array binding signal (z-score),[16],-0.146
same,glycan array binding signal (z-score),[17],-0.295
same,glycan array binding signal (z-score),[18],-0.33
same,glycan array binding signal (z-score),[19],-0.293
same,glycan array binding signal (z-score),[20],-0.085
same,glycan array binding signal (z-score),[21],-0.083
same,glycan array binding signal (z-score),[22],-0.205
same,glycan array binding signal (z-score),[23],0.01
same,glycan array binding signal (z-score),[24],-0.167
same,glycan array binding signal (z-score),[25],-0.256
same,glycan array binding signal (z-score),[26],-0.161
same,glycan array binding signal (z-score),[27],-0.267
same,glycan array binding signal (z-score),[28],-0.157
same,glycan array binding signal (z-score),[29],-0.271
same,glycan array binding signal (z-score),[30],-0.347
same,glycan array binding signal (z-score),[31],-0.257
same,glycan array binding signal (z-score),[32],-0.132
same,glycan array binding signal (z-score),[33],-0.005
same,glycan array binding signal (z-score),[34],-0.208
same,glycan array binding signal (z-score),[35],0.011
same,glycan array binding signal (z-score),[36],-0.293
same,glycan array binding signal (z-score),[37],-0.149
same,glycan array binding signal (z-score),[38],0.019
same,glycan array binding signal (z-score),[39],-0.287
same,glycan array binding signal (z-score),[40],-0.305
same,glycan array binding signal (z-score),[41],-0.295
same,glycan array binding signal (z-score),[42],-0.278
same,glycan array binding signal (z-score),[43],-0.269
same,glycan array binding signal (z-score),[44],-0.258
same,glycan array binding signal (z-score),[45],0.033
